# The other results are listed elsewhere or left out. Cleavage of a single-stranded DNA pool by Rep nickase domains was read by sequencing for 1 h at 37 °C with 3 µM enzyme; only the middle of the 90-letter strands is printed. The score is log2 (uncut reads / reads without enzyme); more negative means more cut, near 0 not cut, and no call is made. Because reads are shares of a total, they shift together; uncut strands gain when others are lost, and binding without cutting may add a little.
# Assays:
# Assay in all cases: uncleaved DNA left, log2 of reads against the no-enzyme library (log2 ratio); higher = less cleavage (more negative = more Rep cleavage of the k-mer); sequences stand for … in CTCGTCCG…ACCGGAGA
# [1] = system: T1, Rep nickase domain of Muscovy duck circovirus
# T1 sequence (residues 1-111 of Rep, tag left off): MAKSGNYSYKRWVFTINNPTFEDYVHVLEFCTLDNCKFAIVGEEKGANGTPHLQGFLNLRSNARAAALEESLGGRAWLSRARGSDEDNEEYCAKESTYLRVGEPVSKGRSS
# Experimental: (§1)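 A pool of 90-nt single-stranded DNAs with seven random bases just before the constant AC of the nick site (name = the seven bases) was cut by 3 µM recombinant His6-SUMO-tagged Rep nickase domain (300 nM DNA, 50 mM HEPES pH 8.0, 50 mM NaCl, 1 mM MnCl2, 1 h, 37 °C, three replicates). Uncut DNA was amplified and sequenced.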
# [2] = system: T2, Rep nickase domain of banana bunchy top virus
# T2 sequence (residues 1-94 of Rep, tag left off): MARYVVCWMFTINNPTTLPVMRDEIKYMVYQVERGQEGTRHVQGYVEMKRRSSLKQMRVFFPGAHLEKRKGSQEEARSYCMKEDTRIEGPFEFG
# Experimental: as §1
# [3] = system: T3, Rep nickase domain of cabbage leaf curl virus
# T3 sequence (residues 1-116 of Rep, tag left off): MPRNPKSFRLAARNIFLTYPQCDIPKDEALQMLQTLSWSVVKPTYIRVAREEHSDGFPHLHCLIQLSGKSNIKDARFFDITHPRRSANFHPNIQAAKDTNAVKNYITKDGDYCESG
# Experimental: as §1
# [4] = system: T4, Rep nickase domain of chickpea chlorotic dwarf virus
# T4 sequence (residues 1-124 of Rep, tag left off): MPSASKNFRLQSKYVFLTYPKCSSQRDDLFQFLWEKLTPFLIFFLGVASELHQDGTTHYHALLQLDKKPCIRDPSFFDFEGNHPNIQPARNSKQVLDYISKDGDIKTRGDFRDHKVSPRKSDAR
# Experimental: as §1
# [5] = system: T5, Rep nickase domain of faba bean necrotic yellows virus
# T5 sequence (residues 1-98 of Rep, tag left off): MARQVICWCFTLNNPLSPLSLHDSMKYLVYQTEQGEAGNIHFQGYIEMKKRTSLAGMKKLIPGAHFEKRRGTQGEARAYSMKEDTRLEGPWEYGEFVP
# Experimental: as §1
# [6] = system: T6, Rep nickase domain of maize striate mosaic virus
# T6 sequence (residues 1-117 of Rep, tag left off): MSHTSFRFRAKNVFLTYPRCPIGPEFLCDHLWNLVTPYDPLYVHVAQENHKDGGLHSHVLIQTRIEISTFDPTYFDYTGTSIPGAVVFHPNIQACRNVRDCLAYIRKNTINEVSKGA
# Experimental: as §1
# [7] = system: T7, Rep nickase domain of porcine circovirus 2
# T7 sequence (residues 2-116 of Rep, tag left off): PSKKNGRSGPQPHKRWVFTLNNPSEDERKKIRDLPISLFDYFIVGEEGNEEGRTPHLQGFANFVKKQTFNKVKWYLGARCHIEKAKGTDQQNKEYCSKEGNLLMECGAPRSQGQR
# Experimental: as §1
# [8] = system: T8, Rep nickase domain of tomato golden mosaic virus
# T8 sequence (residues 1-124 of Rep, tag left off): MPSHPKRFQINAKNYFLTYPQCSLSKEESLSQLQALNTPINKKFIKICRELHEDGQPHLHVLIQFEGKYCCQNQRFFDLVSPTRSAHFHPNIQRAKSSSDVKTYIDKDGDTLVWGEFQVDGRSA
# Experimental: as §1
# [9] = system: T9, Rep nickase domain of tomato yellow leaf curl virus
# T9 sequence (residues 1-136 of Rep, tag left off): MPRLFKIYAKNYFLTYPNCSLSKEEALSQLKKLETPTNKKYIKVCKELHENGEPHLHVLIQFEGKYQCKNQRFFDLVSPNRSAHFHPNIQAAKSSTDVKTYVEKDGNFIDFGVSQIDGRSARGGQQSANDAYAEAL
# Experimental: as §1
# [10] = system: T10, Rep nickase domain of wheat dwarf virus
# T10 sequence (residues 1-137 of Rep, tag left off): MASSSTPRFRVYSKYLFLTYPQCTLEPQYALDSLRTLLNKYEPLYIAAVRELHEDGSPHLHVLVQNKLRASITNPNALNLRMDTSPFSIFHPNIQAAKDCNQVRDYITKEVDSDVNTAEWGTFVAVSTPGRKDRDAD
# Experimental: as §1
Sequence,uncleaved DNA left (log2) [1],uncleaved DNA left (log2) [2],uncleaved DNA left (log2) [3],uncleaved DNA left (log2) [4],uncleaved DNA left (log2) [5],uncleaved DNA left (log2) [6],uncleaved DNA left (log2) [7],uncleaved DNA left (log2) [8],uncleaved DNA left (log2) [9],uncleaved DNA left (log2) [10]
GAAAGAA,0.0485,0.137,0.27,0.301,-0.066,0.343,0.141,0.00536,0.00601,0.158
TCTAACG,-0.0798,-0.0275,-0.775,-0.762,-0.0409,-1.18,0.0888,-0.0563,-0.0727,-0.143
CTCTCAG,0.0807,-0.00209,-0.802,-0.505,0.0544,-0.936,0.172,-0.118,-0.0198,-0.0645
CGACAGT,0.0587,0.0584,0.165,0.768,0.117,1.51,-0.0105,-0.0561,0.0686,0.206
CCAGCGA,-0.0706,-0.126,-0.86,-0.288,-0.14,-0.738,0.000603,-0.0627,-0.101,-0.265
GACGTGT,0.138,0.0668,0.178,0.434,0.12,0.781,-0.00204,0.0663,-0.107,0.0116
CCTGACT,-0.128,-0.151,-0.0318,-0.947,-0.132,0.305,-0.309,-0.126,-0.0828,-0.252
GGCGAGG,0.0453,-0.0366,0.161,0.71,0.016,1.63,0.163,0.0462,-0.106,0.0471
GGAGTCG,0.182,0.203,-0.31,0.0885,0.162,-0.248,0.35,0.18,0.126,0.109
TACTGAC,0.0177,-0.0637,-0.201,0.496,-0.0595,0.235,0.11,-0.144,-0.0391,0.0908
GAATCAG,0.0202,-0.00735,-0.521,-0.444,0.11,-1.04,0.151,0.0365,0.0196,-0.0702
CCACCCG,-0.107,-0.0332,-0.904,-0.38,-0.0938,-0.812,-0.355,-0.0638,-0.0687,-0.106
ATTCGCT,-0.314,-0.253,-0.65,-1.43,-0.0507,-1.39,-1.07,-0.123,-0.0416,-0.134
ATGGGAT,0.0442,-0.00462,0.167,1.55,0.057,1.85,0.144,0.0725,-0.111,-0.0455
CCCTAGT,-1.45,0.00836,-0.267,-1.06,-0.00542,-0.994,-3.28,0.119,0.0373,0.0409
GCGAACC,-0.0315,0.00743,0.0574,0.204,0.0363,-0.0482,-0.134,-0.0694,0.0118,0.0908
GTATACC,-0.0211,0.0192,0.249,0.66,-0.0258,1.39,-0.0109,0.0302,0.0291,0.102
TTACCAG,-0.00889,-0.0462,-0.972,-1.93,-0.113,-1.2,-0.906,-0.107,0.0133,-0.0882
GTGCCAT,-0.0124,0.00978,0.457,1.25,-0.0968,1.87,0.089,0.00999,0.0312,0.0153
TTAGTCA,0.0598,0.169,0.327,-0.33,0.0812,-0.0513,0.067,0.0405,0.193,0.175
AGAACAT,0.141,0.218,0.747,1.67,-0.0526,1.91,0.215,0.064,0.0859,0.246
CCAGTGC,-0.0717,0.0831,-0.611,-0.0938,0.065,-0.888,0.11,-0.0577,0.178,-0.0198
ACTGTGA,0.0731,-0.0173,-0.428,-0.348,0.0215,-0.984,0.0584,0.0622,0.00757,-0.0707
GTGGTGA,-0.0188,0.0864,0.332,0.894,0.0541,1.5,0.0454,0.0326,-0.0176,0.0485
AGTCTGG,0.0519,-0.0345,-0.0363,0.245,-0.0394,-0.0607,-0.0242,0.00892,-0.103,-0.0232
TTCGGTT,0.047,0.0236,0.0441,-0.647,-0.12,0.611,-0.092,-0.121,-0.134,-0.0912
CCAGAGT,0.0668,-0.129,-0.287,-0.724,-0.0431,-0.851,0.0261,0.0536,-0.0279,-0.0697
CAGAGGT,0.0911,0.12,0.404,1.13,0.0985,1.41,-0.698,0.191,0.0788,0.0985
GTTTATA,0.177,0.0881,0.351,1.01,0.0491,1.87,0.161,0.176,0.155,0.239
CACGTGC,0.0295,-0.0947,-0.628,-0.556,-0.0238,-1.12,0.0439,0.0102,0.00746,0.0236

# Source: the supplement of paper PMC7826260
